# The list shows a part of the results. The main result of the screen is listed elsewhere. These columns were measured beside it and carry no call.
# Assays:
# Experiment in all cases: Primary Screen for Target Class Profiling of Small Molecule Inhibitors of Methyltransferases
# [1] = target: Glycine N-methyltransferase (Homo sapiens) (UniProt Q14749); details: purified enzyme, MTase-Glo SAH luminescence; measured here: GNMT inhibition; at 40 µM; stronger effect = lower value
# Method in brief: (§1)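 Each enzyme was reacted with SAM and its substrate, with compounds tested once at 40 uM; SAH formed was read by MTase-Glo luminescence.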
# [2] = target: Guanidinoacetate N-methyltransferase (Homo sapiens) (UniProt Q14353); details: purified enzyme, MTase-Glo SAH luminescence; measured here: GAMT inhibition; at 40 µM; stronger effect = lower value
# Method in brief: as §1
# [3] = target: Histamine N-methyltransferase (Homo sapiens) (UniProt P50135); details: purified enzyme, MTase-Glo SAH luminescence; measured here: HNMT inhibition; at 40 µM; stronger effect = lower value
# Method in brief: as §1
# [4] = target: Nicotinamide N-methyltransferase (Homo sapiens) (UniProt P40261); details: purified enzyme, MTase-Glo SAH luminescence; measured here: NNMT inhibition; at 40 µM; stronger effect = lower value
# Method in brief: as §1
# [5] = target: Phenylethanolamine N-methyltransferase (Homo sapiens) (UniProt P11086); details: purified enzyme, MTase-Glo SAH luminescence; measured here: PNMT inhibition; at 40 µM; stronger effect = lower value
# Method in brief: as §1
# % is scaled to controls: 0 for no effect and ±100 for the full control effect.
Compound,"activity change, negative = inhibition [1]","activity change, negative = inhibition [2]","activity change, negative = inhibition [3]","activity change, negative = inhibition [4]","activity change, negative = inhibition [5]"
COc1ccc(-c2cc(=O)oc3cc(OC(C(=O)O)c4ccccc4)ccc23)cc1 (stereo not given),-17%,0%,9.09%,8.9%,-0.752%
CC1(C(=O)NC2CCCCC2)Cn2c(cc3sccc32)C(=O)N1Cc1cccnc1 (stereo not given),2.75%,-2.79%,8.17%,4.93%,2.05%
COc1cccc(C2c3cccn3-c3sc4c(c3CN2C(=O)Nc2ccc(C)c(F)c2)CCCC4)c1 (stereo not given),-0.132%,2.59%,1.83%,4.34%,9.25%
CCCSCCCNC(=O)c1cc2n(n1)CC(C)(C(=O)NC1CCCCC1)N(C)C2=O (stereo not given),-1.51%,2.02%,-5.84%,-3.92%,-5.3%
C[C@]12C[C@@H](O)[C@@H]3C[C@@]1(O[C@@H]1O[C@H](CO)[C@@H](O)[C@H](O)[C@H]1O)[C@]3(COC(=O)c1ccccc1)C(=O)O2,4.86%,3.45%,10.2%,-9.61%,8.01%
CCN1C(=O)c2c(C(=O)NCc3ccccc3F)ncn2CC1(C)C(=O)NC1CCCC1 (stereo not given),-4.84%,-0.568%,6.24%,0.679%,0.917%
NC(=O)[C@@H](Cc1c[nH]c2ccccc12)NC(=O)[C@@H]1CN(S(=O)(=O)c2ccccc2)CCN1C(=O)C1CCNCC1,-6.31%,-3.65%,-4.32%,-3.3%,-3.37%
CCOc1cccc(NC(=O)c2ccc(N3CCCC3)c(C(F)(F)F)c2)c1,0.87%,0.504%,2.55%,-26.8%,-10.5%
CCCS(=O)(=O)N1CCCC1C(=O)Nc1ccccc1-c1ccc(OC)cc1 (stereo not given),-2.17%,1.92%,-0.862%,-3.57%,17.9%
CCCn1c(=O)c2ccc(C(=O)NC(C)C)cc2n2c(=O)n(Cc3c(F)cccc3Cl)nc12,3.48%,1.81%,10.5%,-0.425%,5.34%
Cn1c(=O)n(C)c2cc(S(=O)(=O)N3CCN(c4cccc(Cl)c4)CC3)ccc21,5.14%,0%,8.31%,10.1%,3.07%
Cc1ccccc1NC(=O)CSc1nnc2n(CC(C)C)c(=O)c3cc(F)ccc3n12,-3.23%,0.004%,2.99%,-4.62%,1.35%
CC1=CC(=O)C2(OC3OC(C)C(O)C(OC(=O)/C=C/c4ccccc4)C3O)C=COC(OC3OC(CO)C(O)C(O)C3O)C12 (stereo not given),-1.45%,-2.73%,7.09%,-14.6%,-3.41%
Cc1cnc(C2CCOCC2)n1CC1CCN(C2CCCCCC2)CC1,-2.25%,-1.69%,-9.91%,1.67%,5.26%
O=C(CN1CCCC1)N[C@H]1CC[C@H](Nc2nccc(-c3cccnc3)n2)C1,-9.02%,-3.62%,-47.3%,-10.8%,-14.9%
CN1CCCC(c2nc(CCOCC3CCCC3)no2)C1 (stereo not given),-3.87%,-5.27%,-3.72%,-4.94%,-7.33%
O=C(Cc1ccccc1)NCC1CN(Cc2ccncc2Cl)CC12CN(c1ccccc1)C2 (stereo not given),-6.2%,-0.903%,0.157%,-8.19%,-5.53%
CC(NC(=O)[C@H](Cc1ccccc1)NC(=O)OCc1ccccc1)C(=O)CF (stereo not given in full),-11.2%,-14.9%,9.12%,-15.5%,-1.83%

Compound,"activity change, negative = inhibition [1]","activity change, negative = inhibition [2]","activity change, negative = inhibition [3]","activity change, negative = inhibition [4]","activity change, negative = inhibition [5]"
CCn1ccc(C(=O)N2CCC(N3C[C@H](O)C[C@H]3C(=O)NCc3cccnc3)CC2)n1,-8.05%,-4.62%,-4.5%,-7.18%,-19.6%
O=C(O[C@H]1[C@@H]2C=CO[C@@H](O[C@@H]3O[C@H](CO)[C@@H](O)[C@H](O)[C@H]3O)[C@@H]2[C@@]2(CO)O[C@@H]12)c1ccc(O)cc1,4.09%,7.54%,5.69%,-3.75%,7.09%
COC(C)(C)CCn1nc(Nc2c(C)cccc2C)c2cnc(Nc3ccc(OCCN4CCCC4)c(F)c3)nc21,-6.06%,-6.85%,-62.8%,-36.5%,-15%
CCCCCC(=O)Nc1ccc([C@H]2OCC(=O)N(Cc3nccn3C)[C@@H]2CO)cc1,-8.81%,-6.21%,-3.36%,-9.12%,7.13%
CCc1ccc(CNC(=O)Cn2ccc3cc(S(=O)(=O)N4CCCC4)ccc32)cc1,3.04%,0.363%,5.36%,2.83%,3.17%
COc1ccc(OC)c2c1cc1n2CC(C)(C(=O)NC2CCCCC2)N(C(C)c2ccccc2)C1=O (stereo not given),-6.66%,-1.3%,4.49%,0.54%,-1.98%
O=C(CC1CCOCC1)N1CCN(Cc2ccc(F)cc2F)CC1,0.239%,-0.488%,2.45%,-0.231%,-1.45%
CC1(C(=O)NC2CCCCCC2)Cn2c(cc3sccc32)C(=O)N1Cc1cccs1 (stereo not given),3.32%,-1.6%,4.8%,-2.31%,0.364%
CC(C)CCn1c(=O)c2ccccc2n2c(CCC(=O)NCCc3c[nH]c4ccccc34)nnc12,-3.21%,1.88%,1.55%,-18%,0.514%
Cc1ccc(S(=O)(=O)c2nnn3c2nc(NCCCOC(C)C)c2cc(Cl)ccc23)cc1C,-7.66%,-0.416%,-3.47%,-8.51%,-10.2%
CCCN1C(=O)c2c(C(=O)NCCN3CCOCC3)ncn2CC1(C)C(=O)NCCC(C)C (stereo not given),2.13%,0.746%,9.18%,6.63%,8.14%
OC[C@H]1O[C@@H](n2cnc3c(NC4CCCC4)ncnc32)[C@H](O)[C@@H]1O,-3.64%,6.88%,-2.37%,-3.83%,8.55%
CCC(C)NC(=O)c1ccc2c(=O)n(CCC(C)C)c3nn(CC(=O)N(C)c4ccccc4)c(=O)n3c2c1 (stereo not given),-0.231%,2.33%,-0.299%,-7.19%,-1.78%
CC(C)CCn1c(=O)c2ccc(C(=O)NC3CCCC3)cc2n2c(=O)n(Cc3ccccc3)nc12,5.23%,1.38%,5.26%,3.81%,9.52%
Cc1ccc(Cn2c(=O)c3ccccc3n3c(CCC(=O)N4CCN(c5ccccc5)CC4)nnc23)cc1,-9.87%,6.11%,1.88%,-7.71%,-6.35%
CCC(C)NC(=O)c1ccc2c(=O)n(C)c3nnc(SCC(=O)Nc4ccc(C)cc4C)n3c2c1 (stereo not given),1%,-0.96%,-9.23%,-6.88%,-3.97%
CCc1ccc(C2c3cccn3-c3sc4c(c3CN2C(=O)Nc2ccc(OC)c(OC)c2)CCCC4)cc1 (stereo not given),-6.35%,1.1%,1.49%,-11.7%,-2.08%
CC1(C(=O)NC2CCCCCC2)Cn2nc(-c3cccs3)cc2C(=O)N1Cc1ccccc1 (stereo not given),4.93%,4.94%,10.1%,6.1%,2.21%

# Reference: PubChem BioAssay AID1745853 (National Center for Advancing Translational Sciences (NCATS), 2022)
